Results on 49 compounds are retold here after paper PMC6919601, “Identification of Plasmodium dipeptidyl aminopeptidase allosteric inhibitors by high throughput screening” (PLoS ONE, 2019).

In all, about 110,000 compounds went through this assay and about 230 (0.21%) showed an effect of 50% or more. The list shows a part of the results.
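Also: 30 min substrate incubation versus DMSO and 10 µM JCP410 controls.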

The target in this experiment is DPAP1 (Plasmodium falciparum, UniProt Q8IIJ9). The experiment can be described thus: primary screen, percent inhibition; read by cleavage of a fluorogenic dipeptide substrate; higher = more effect of the substance. Set-up: species or system P. falciparum D10 trophozoite lysates; single well.
Sequence of DPAP1 (Q8IIJ9 whole entry, looked up): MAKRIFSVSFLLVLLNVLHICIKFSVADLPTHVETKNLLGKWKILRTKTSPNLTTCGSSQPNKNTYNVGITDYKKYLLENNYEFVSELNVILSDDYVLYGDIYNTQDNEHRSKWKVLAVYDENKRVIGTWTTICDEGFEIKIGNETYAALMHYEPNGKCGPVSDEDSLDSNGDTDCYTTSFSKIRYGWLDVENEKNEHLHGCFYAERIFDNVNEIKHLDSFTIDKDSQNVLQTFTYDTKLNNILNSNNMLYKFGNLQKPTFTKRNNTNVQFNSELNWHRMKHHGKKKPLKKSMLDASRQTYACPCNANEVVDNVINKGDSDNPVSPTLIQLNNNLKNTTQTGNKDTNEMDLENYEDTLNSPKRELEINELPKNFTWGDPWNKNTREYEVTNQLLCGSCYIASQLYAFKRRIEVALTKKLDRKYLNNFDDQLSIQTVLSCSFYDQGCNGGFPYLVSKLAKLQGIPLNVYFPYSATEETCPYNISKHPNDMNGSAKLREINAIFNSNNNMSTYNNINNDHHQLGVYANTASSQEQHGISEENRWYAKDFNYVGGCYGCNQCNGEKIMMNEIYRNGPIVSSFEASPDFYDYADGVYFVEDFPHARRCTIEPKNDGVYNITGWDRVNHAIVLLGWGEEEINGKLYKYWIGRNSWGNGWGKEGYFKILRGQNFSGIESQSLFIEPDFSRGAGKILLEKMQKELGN
As to `Cc1cccc(Cn2c(Sc3nc(C)cs3)nc3c2c(=O)[nH]c(=O)n3C)c1`, the “% Inhibition @ 10 uM” value is 4%.

As for `COc1ccc(Br)cc1CNC(=O)C1CCN(C(=O)N(C)C)CC1`, the “% Inhibition @ 10 uM” value was 0.387%.

On to `CCOC(=O)N1CCN(C(=O)CN(c2cccc(F)c2)S(C)(=O)=O)CC1`, for which the “% Inhibition @ 10 uM” value came to 1.27%.

As for `COc1ccc(-c2c(C)nn3c(NCc4ccc(F)cc4)cc(C)nc23)cc1OC`, the “% Inhibition @ 10 uM” value was -0.138%.

As for `CCN(CC)CCCOC(=O)C(OC)(c1ccccc1)c1ccccc1`, the “% Inhibition @ 10 uM” value is on record as 0.0345%.

`CCCN(CC1CC1)C(C)CCc1ccc(O)cc1` (stereo not shown): the “% Inhibition @ 10 uM” value came to 3.19%.

As for `O=C(NCCC1=CCCCC1)c1ccc(C(=O)NCCC2=CCCCC2)nc1`, the “% Inhibition @ 10 uM” value is 0.389%.

As to `COc1ccc(C2C(C(=O)c3ccccc3)=C(O)C(=O)N2CCN2CCOCC2)cc1OC` (stereo not shown), the “% Inhibition @ 10 uM” value is -0.478%.

In the case of `C=CCOc1ccc(C(=O)N(Cc2ccc(CC)cc2)C2CCS(=O)(=O)C2)cc1` (stereo not shown), the “% Inhibition @ 10 uM” value was 5.26%.

As to `Cc1ccc(-n2nc3c(c2NC(=O)c2ccccc2C(F)(F)F)CS(=O)(=O)C3)cc1`, the “% Inhibition @ 10 uM” value is on record as 5.35%.

As for `Cc1cccc2c(C(=O)O)cc(-c3ccccc3O)nc12`, the “% Inhibition @ 10 uM” value is given as -2.85%.

Consider `O=C(Cn1cnc2c(oc3ccccc32)c1=O)N1CCC(Cc2ccccc2)CC1`, for which the “% Inhibition @ 10 uM” value is given as 1.64%.

Turning to `C#CC(C)(CCC=C(C)C)OC(=O)Cn1c(=O)sc2cccc(Cl)c21` (stereo not shown), the “% Inhibition @ 10 uM” value is -0.833%.

For `Cc1ccc(-c2csc(N)c2C(N)=O)cc1C`, the “% Inhibition @ 10 uM” value is listed as 1.59%.

Take `O=C(COc1ccc(Cl)cc1)NCc1nnc(SCC(=O)NCc2ccc3c(c2)OCO3)o1`: the “% Inhibition @ 10 uM” value came out at 0.163%.

As for `CC(=O)N[C@@H](Cc1ccccc1C(F)(F)F)C(=O)N[C@@H](CCc1ccccc1)C(=O)c1nc2ccccc2o1`, the “% Inhibition @ 10 uM” value is -0.214%.

Turning to `CCCCN(C)CCCNC(=O)Cn1ncc2c3ccccc3n(C)c2c1=O`, the “% Inhibition @ 10 uM” value amounted to 2.99%.

`CCOC(=O)/C(C#N)=C/c1c(Oc2ccccc2OC)nc2ccccn2c1=O`: the “% Inhibition @ 10 uM” value is reported as -5.1%.

On to `CN1C(c2ccccc2)CC(O)(Cc2ccccc2)CC1c1ccccc1` (stereo not shown), for which the “% Inhibition @ 10 uM” value is recorded as -6.88%.

As for `O=C(O)c1ccc2c(c1)Sc1ccccc1CC2=O`, the “% Inhibition @ 10 uM” value is -4.54%.

Consider `CCOc1ccc(Nc2cc(=O)n(C)c(=O)n2C)cc1`, for which the “% Inhibition @ 10 uM” value was -4.93%.

For `C=CCn1c(SCC(=O)Nc2sc3c(c2C(=O)OCC)CCCC3)nnc1-c1cccs1`, the “% Inhibition @ 10 uM” value was -5.15%.

For the compound `Cc1ccc(Sc2c(C)nn(C(=O)c3cccnc3)c2C)cc1`, the “% Inhibition @ 10 uM” value is on record as 1.84%.

Turning to `CCOC(=O)c1c(NC(=O)CSc2nnc3c4ccccc4n(CC)c3n2)sc2c1CCC2`, the “% Inhibition @ 10 uM” value amounted to 4.95%.

For `COc1ccc(N(CC(=O)Nc2ccccc2)S(=O)(=O)c2ccccc2)cc1OC`, the “% Inhibition @ 10 uM” value is -0.469%.

Turning to `COc1ccc(S(=O)Cc2ccc(C(=O)N3CCN(C4CCCCC4)CC3)o2)cc1` (stereo not shown), the “% Inhibition @ 10 uM” value was -0.999%.

In the case of `COc1ccc(/C=C2\C(=O)N(c3ccc(Cl)cc3)N=C2C)cc1OC`, the “% Inhibition @ 10 uM” value is listed as -2.51%.

With `Cc1nnc2sc(NC(=O)CC(C)C)nn12`, the “% Inhibition @ 10 uM” value is given as -1.26%.

For `CCOC(=O)C1=CN(Cc2ccc(OC)cc2)C=C(C(=O)OCC)C1c1cc(OC)c(O)c(OC)c1`, the “% Inhibition @ 10 uM” value is 0.219%.

Regarding `O=C1N/C(=C\c2ccc([N+](=O)[O-])cc2)C(=O)c2ccccc21`, the “% Inhibition @ 10 uM” value is -2.02%.

With `COC(=O)C1=C(C)N(C)C(=O)NC1c1ccc(OC)c(Br)c1` (stereo not shown), the “% Inhibition @ 10 uM” value was 0.736%.

As for `C=C(C)CN(CC)C1CCN(C(=O)OCC)CC1`, the “% Inhibition @ 10 uM” value is listed as -3.6%.

As to `Cc1ccc(-c2noc(CNC(=O)N3CCOCC3)n2)cc1`, the “% Inhibition @ 10 uM” value was determined as 0.486%.

On to `CCNC(=O)c1cc2c(C)nn(-c3ccccc3)c2s1`, for which the “% Inhibition @ 10 uM” value is on record as 1.57%.

For the compound `O=C(C1COc2cc(S(=O)(=O)NCCc3ccc(Cl)cc3)ccc2O1)N1CCCCC1` (stereo not shown), the “% Inhibition @ 10 uM” value was -2.85%.

Take `CC(C)(C)NC(=O)CSc1nc(-c2ccccc2)cc(C(F)(F)F)n1`: the “% Inhibition @ 10 uM” value is -1.65%.

With `COc1cccc(C(C(=O)NC2CCCCC2)N(C(=O)c2cnccn2)c2cccs2)c1` (stereo not shown), the “% Inhibition @ 10 uM” value was -1.07%.

Turning to `O=S(=O)(Nc1ccccn1)c1ccc2[nH]c3c(c2c1)CCCCC3`, the “% Inhibition @ 10 uM” value was -4.13%.

For the compound `COC(=O)c1c(C)oc2ccc(O)cc12`, the “% Inhibition @ 10 uM” value turned out to be 4.66%.

For the compound `CCOc1ccc(NS(=O)(=O)c2ccc(NC(=O)c3ccc(F)cc3)cc2)cc1`, the “% Inhibition @ 10 uM” value is -2.19%.

Regarding `CCOc1cc(/C=C2/C(=N)N3N=C(c4ccc(C)cc4)SC3=NC2=O)ccc1O`, the “% Inhibition @ 10 uM” value is reported as -0.0829%.

`COc1ccccc1NC(=O)CCCOc1ccc(Cl)cc1Cl`: the “% Inhibition @ 10 uM” value is listed as 4.82%.

For the compound `COC1CCCCC1Nc1ccc2c(c1)CCC2` (stereo not shown), the “% Inhibition @ 10 uM” value is on record as -5.59%.

Regarding `CC(=O)Nc1ccc(S(=O)(=O)N2CCN(C(=O)N3CCCCC3)CC2)cc1`, the “% Inhibition @ 10 uM” value is 2.44%.

`Cc1ccc(-n2ncc(C(=O)N3CCN(C)CC3)c2C2CCN(C(=O)OC(C)(C)C)CC2)cc1`: the “% Inhibition @ 10 uM” value is given as -0.171%.

As for `C=CCc1ccccc1OCC(O)CN1CCN(Cc2ccc3c(c2)OCO3)CC1` (stereo not shown), the “% Inhibition @ 10 uM” value is 17.1%.

`Cc1ccc2cc(CCNS(C)(=O)=O)c(O)nc2c1`: the “% Inhibition @ 10 uM” value is on record as -1%.

Take `Cc1ccc(-n2nc(C)c3c(C)c(CCC(=O)N4CCN(C(=O)c5ccco5)CC4)c(C)nc32)cc1C`: the “% Inhibition @ 10 uM” value was -4.1%.

Regarding `CCOc1ccc(NS(=O)(=O)c2ccc(NC(=O)C3CC3)cc2)cc1`, the “% Inhibition @ 10 uM” value amounted to 4.11%.
